Test results reported in PubChem BioAssay (NCATS).
Inconclusive results, whose numbers are uncertain, are shown with a selection of clear calls. For some of these results: No potency is given beside an inconclusive call; the fits are too rough. Active and inactive are the calls of the source. Calls follow the shape of the dose curve; as a rule, active = well fitted curve in the direction sought with a large enough effect; inconclusive = small, poorly fitted or top-dose-only effect, or another doubt; inactive = no such curve, though single readings can be large; an effect the other way counts as inactive or inconclusive.

What was measured:
[1] = test system: Zika virus NS2B-NS3 protease (linked construct); experiment: Primary screen NINDS Rhodamine qHTS for Zika virus inhibitors (AID 1347160); conditions: purified NS2B-NS3 protease, Rhodamine110 substrate fluorescence; series mostly up to 112 µM; also: potency is read from the fitted curve at half-maximal effect; nearly all actives have a fitted effect of over 55% in size
Procedure, shortened: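 Kinetic fluorescence (Ex 480 nm, Em 540 nm) over 15 min with 1.5 microM Rhodamine110 peptide and 25 nM linked protease.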

[2] = HPAF-II Cancer Cell Toxicity qHTS against the NCATS CANVASS Library (AID 1347346); conditions: HPAF-II viability, CellTiter-Glo ATP luminescence, 72 h; series mostly up to 38.3 µM; also: potency is read from the fitted curve at half-maximal effect; nearly all actives have a fitted effect of over 55% in size
Procedure, shortened: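 HPAF-II cells were seeded at 1000 cells/well, allowed to settle for 4 h at 37 degrees C, then exposed to compounds in an 11-point series for 72 h. Viability was read by CellTiter-Glo luminescence.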

[3] = UWB1.289 Cancer Cell Toxicity qHTS against the NCATS CANVASS Library (AID 1347347); conditions: UWB1.289 viability, CellTiter-Glo luminescence, 72 h; series mostly up to 38.3 µM; also: potency is read from the fitted curve at half-maximal effect; nearly all actives have a fitted effect of over 60% in size
Procedure, shortened: (§1)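 Bortezomib titration and single-dose wells served as plate controls. Test compounds, 11 points, acted on 1000 cells/well for 72 h at 37 degrees C; CellTiter-Glo luminescence quantified remaining viable cells.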

[4] = Panc-1005 Cancer Cell Toxicity qHTS against the NCATS CANVASS Library (AID 1347349); conditions: Panc-1005 viability, CellTiter-Glo luminescence, 72 h; series mostly up to 38.3 µM; also: potency is read from the fitted curve at half-maximal effect; nearly all actives have a fitted effect of over 60% in size
Procedure, shortened: as §1

[5] = U-118MG Cancer Cell Toxicity qHTS against the NCATS CANVASS Library (AID 1347351); conditions: U-118MG viability, CellTiter-Glo luminescence, 72 h; series mostly up to 38.3 µM; also: % is scaled to controls: 0 for no effect and ±100 for the full control effect
Procedure, shortened: as §1

[6] = A2780 Cisplatin Sensitive Ovarian Cancer Cell Toxicity qHTS against the NCATS CANVASS Library (AID 1347353); conditions: A2780 ovarian cancer viability, ATPLite luminescence, 72 h; series mostly up to 46.1 µM; also: potency is read from the fitted curve at half-maximal effect; nearly all actives have a fitted effect of over 60% in size
Procedure, shortened: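 A2780 cisplatin-sensitive cells (750 per well) were seeded, left 4 h at 37 °C, then pin-dosed in an 11-point series. After 72 h at 37 °C/5% CO2, viability was measured as ATPLite luminescence.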

[7] = qHTS for Antimalaria activity screened against the NCATS CANVASS Library (AID 1347380); also: potency is read from the fitted curve at half-maximal effect; nearly all actives have a fitted effect of over 40% in size; conditions: P. falciparum Dd2 growth, SYBR Green fluorescence, 72 h; series mostly up to 28.7 µM
Procedure, shortened: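 P. falciparum Dd2-infected RBCs (2.5% hematocrit final, 0.3% parasitemia) in Albumax II RPMI were exposed to compounds in an 11-point qHTS series for 72 h at 37C under 5% O2/5% CO2, then lysed with SYBR Green.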

[8] = qHTS for Activators of p53 Stress Response Pathway screened against the NCATS CANVASS Library (AID 1347388); conditions: p53RE-bla HCT-116, beta-lactamase reporter, 16 h; series mostly up to 46.1 µM; also: potency is read from the fitted curve at half-maximal effect
Procedure, shortened: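 Beta-lactamase reporter driven by p53 response elements in HCT-116 cells, read as the 460 nm/530 nm emission ratio after CCF4 loading, following 16 h of exposure to an 11-point series. Cell viability was measured in the same wells by CellTiter-Glo luminescence.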

[9] = qHTS for inhibitors of ER calcium dysfunction: SERCaMP assay screened against the NCATS CANVASS Library (AID 1347393); conditions: SH-SY5Y GLuc-SERCaMP (Gaussia luciferase released on ER calcium loss) secretion, thapsigargin, luminescence; activity change, negative = inhibition: at 76.6 µM (top of the series) unless noted;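 also: % is scaled to controls: 0 for no effect and ±100 for the full control effect; lower secreted reporter signal means inhibitor of ER calcium depletion; nearly all actives have a fitted effect of over 40% in size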
Procedure, shortened: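 Thapsigargin-induced ER calcium depletion drives GLuc-SERCaMP secretion from SH-SY5Y cells; compounds given 16 h beforehand were scored by lowered coelenterazine luminescence after 4 h challenge.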

[10] = SW1088 Cancer Cell Toxicity qHTS against the NCATS CANVASS Library (AID 1347350); conditions: SW1088 viability, CellTiter-Glo luminescence, 72 h; series mostly up to 38.3 µM; also: potency is read from the fitted curve at half-maximal effect; nearly all actives have a fitted effect of over 75% in size
Procedure, shortened: as §1

[11] = HEK-293 Cancer Cell Toxicity qHTS against the NCATS CANVASS Library (AID 1347355); conditions: HEK-293 viability, CellTiter-Glo luminescence, 72 h; series mostly up to 46.1 µM; also: potency is read from the fitted curve at half-maximal effect; nearly all actives have a fitted effect of over 65% in size
Procedure, shortened: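 Cells were seeded at 1000 per well and allowed to settle 4 hours at 37 degrees C before pin transfer of compounds as an 11-point series. Viability was read by CellTiter-Glo luminescence after 72 hours' exposure.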

[12] = KB-8-5-11 Cancer Cell Toxicity qHTS against the NCATS CANVASS Library (AID 1347364); conditions: KB-8-5-11 MDR cells viability, CellTiter-Glo, 72 h; activity change, negative = toxicity: at 46.1 µM (top of the series); series mostly up to 46.1 µM; also: potency is read from the fitted curve at half-maximal effect; nearly all actives have a fitted effect of over 75% in size
Procedure, shortened: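 KB-8-5-11 cells (500/well) in DMEM + 10% FBS were exposed to compounds in an 11-point qHTS series for 72 hr at 37C, 5% CO2. Viability was read by CellTiter-Glo luminescence.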

[13] = Secretion counterscreen for inhibitors of the SERCaMP assay screened against the NCATS CANVASS Library (AID 1347390); conditions: SH-SY5Y constitutive GLuc secretion, luminescence, 20 h; activity change, negative = inhibition: at 76.6 µM (top of the series);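 also: light from luciferase secreted into medium read as a measure of general secretion; % is scaled to controls: 0 for no effect and ±100 for the full control effect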
Procedure, shortened: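 SH-SY5Y cells expressing constitutively secreted GLuc, 1000 cells/well, attached 4 h at 37C, then exposed to compounds (0.001 - 77 uM, 11-pnt series) for 20 h. Coelenterazine added; luminescence read to flag secretory-pathway interferers.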

[14] = qHTS for activators of Nrf2/ARE signaling pathway screened against the NCATS CANVASS Library (AID 1347391); conditions: ARE-bla HepG2, beta-lactamase reporter, 16 h; series mostly up to 46.1 µM; also: potency is read from the fitted curve at half-maximal effect; nearly all actives have a fitted effect of over 60% in size
Procedure, shortened: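 ARE-bla HepG2 beta-lactamase reporter cells, 2000 cells/well, were preincubated 5 h, then exposed to compounds (11-point series) for 16 h at 37C. CCF4 fluorescence (ex 405, em 460/530 nm) after 2 h at room temperature.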
Tags tell the direction and shape of the fitted curve.

Compound | Potency [1] | Potency [2] | Potency [3] | Potency [4] | Potency [5] | Potency [6] | Potency [7] | Potency [8] | Potency [9] | Potency [10] | Potency [11] | Potency [12] | activity change, negative = inhibition [13] | Potency [14]
C=C1CC[C@@H](O[C@H]2C[C@@](O)([C@H](C)NC(=O)c3[nH]c(C)c(Cl)c3Cl)[C@H](O)[C@@H](C)O2)[C@@H]2C=C[C@H](C)C(/C(O)=C3/C(=O)[C@H](C(C)C)N([C@@H]4O[C@H](C)[C@H](OC(N)=O)[C@H](OC(C)=O)[C@@H]4OC)C3=O)[C@@H]12 (some centres undefined) | active: 15.6 µM | inconclusive [cytotoxic, single point] | inconclusive [cytotoxic, partial curve] | inconclusive [cytotoxic, single point] | inactive | inconclusive [cytotoxic, single point] | inconclusive [cytotoxic, partial curve, poor fit] | inconclusive [activator, partial curve, poor fit] | inactive | – | – | – | – | –
C/C=C/C1C=CC2CC(C)CC(C)C2C1C(=O)CC(=O)NC(CO)C/C=C/CCCCC (centres undefined) | active: 11 µM | inconclusive [cytotoxic, single point] | inconclusive [cytotoxic, single point] | inconclusive [cytotoxic, single point] | – | inconclusive [cytotoxic, single point] | – | – | – | active: 14.9 µM | inconclusive [cytotoxic, single point] | inconclusive [cytotoxic, partial curve, poor fit] | inconclusive: -16.2% [inhibitor] | active: 16.6 µM
